# Laboratory results reported in the RNAGym collection of RNA variant scans (doi:10.1093/nar/gkz1192).
# Read counts are not given, so values of variants with three or more changes are uncertain.
# B1: CPEB3 Ribozyme (parent)
# chain: UAACAGGGGGCCACAGCAGAAGCGUUCACGUCGCAGCCCCUGUCAGAUUCUGGUGAAUCUGCGAAUUCUGCUGUAUAUCUC
# Variants of: B1
# Test: self-cleavage, relative activity (ratio to wild type); higher = more cleavage; in vitro, sequencing
# Procedure, shortened: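 Relative activity compares each variant's cleaved/total read fraction with that of the unmutated ribozyme. To get these fractions, barcoded CPEB3 ribozyme libraries from rounds of error-prone PCR were transcribed with T7 RNA polymerase for 5 hours at 37°C and then given 15 min of DNase I treatment before EDTA was added. The RNAs were reverse transcribed with template switching and sequenced on Illumina, and DNA sequencing linked barcodes to variants. A minimum of 5 reads applied, and three batches were averaged.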
row,Variant,self-cleavage
1,U26A C40A C62A U72A,0.08
2,U26A C40U U51A U69G U72G,0.12
3,U26A C44U G53A A57G,0.5
4,U26A C44U U54C A77G U78A,0.07
5,U26A C50A U58C U78C,0.13
6,U26A C59U U74G,0.59
7,U26A C62U U72G,0.18
8,U26A G30C U60C U69C U78A,0.13
9,U26A G30U A57G,0.07
10,U26A G33A U74A,0.21
11,U26A G33C U41C U72C,0.16
12,U26A G36A U69A,0.14
13,U26A G42A A65U,0.16
14,U26A G52A U69A,0.38
15,U26A G52U G55A A56C A57G,0.26
16,U26A G73A U80C,1.41
17,U26A U31A A56G,0.28
18,U26A U31A U54A,0.57
19,U26A U31A U72A,0.15
20,U26A U31C C40A U78C,0.14
21,U26A U31C G33C U43C U69A A77C,0.04
22,U26A U31C U43C A45G U66C,0.32
23,U26A U31C U51C,0.73
24,U26A U31C U60A,0.51

row,Variant,self-cleavage
1,U26A U41A A64G,0.44
2,U26A U41C A45G,0.47
3,U26A U41C U66C,0.25
4,U26A U41G A64U U76C,0.14
5,U26A U43A A45G U51G U58C,0.11
6,U26A U43A A47G U72C U80C,0.1
7,U26A U43A A64C,0.13
8,U26A U43C U72C,0.26
9,U26A U49A A57C,0.17
10,U26A U49A U67C U78C,0.12
11,U26A U51A A64G,0.73
12,U26A U51C A56C A57U,0.1
13,U26A U51C A56G A65G U66C U78C,0.08
14,U26A U51G U54C,0.88
15,U26A U51G U54G A56U A65G U67G U72A,0.21
16,U26A U54A A56U,0.61
17,U26A U54A U60G,0.53
18,U26A U60A A65G,0.2
19,U26A U60A U78C,0.31
20,U26A U60C A64U U69A,0.16
21,U26A U60C A65G,0.3
22,U26A U67A A77G,0.31
23,U26A U67C U80A,0.22
24,U26A U72A A75G,1.05

row,Variant,self-cleavage
1,U26A U72A A77U,0.36
2,U26A U74A A77G,1.25
3,U26C A28C A35C A56G A64G U78G U80A,0.02
4,U26C A28C C38U A56G U60C A64G U72A,0.13
5,U26C A28C U31C A35U A57G U74A,0.07
6,U26C A28C U60C A65G,0.17
7,U26C A28G A35G C59A U80G,0.09
8,U26C A28G A64U,0.29
9,U26C A28G C32A A57G A65G,0.07
10,U26C A28G C34G U48C A64G U67G A77U,0.09
11,U26C A28G C40U A47G,0.17
12,U26C A28G U31C U41A A57G,0.11
13,U26C A28G U43A U49C,0.13
14,U26C A28G U43C U51C A75C C81G,0.75
15,U26C A28G U51C U60A,0.12
16,U26C A28U A35U,0.12
17,U26C A28U A56U U67A U72A U80C,0.07
18,U26C A35C C38U U69C U76A,0.17
19,U26C A35C G61U,0.09
20,U26C A35G A47G,0.94
21,U26C A35G C40A G42A U49A,0.29
22,U26C A35G U43A,0.26
23,U26C A35G U48C A65U,0.14
24,U26C A35G U49C U80C,1.03

row,Variant,self-cleavage
1,U26C A35G U54C A64U,0.28
2,U26C A35G U54C A75G,1.03
3,U26C A35G U54C C71U A77G,0.23
4,U26C A35G U60C,0.31
5,U26C A35U A64G,0.17
6,U26C A35U C40U U69C,0.31
7,U26C A35U C62U,0.16
8,U26C A35U U43C A45G,0.2
9,U26C A35U U48C,0.17
10,U26C A35U U49C A57G U72A U80C,0.07
11,U26C A45G A57U U66C U78C,0.06
12,U26C A45G U72A,0.31
13,U26C A45G U74C C81A,0.34
14,U26C A45U A57G U69A,0.08
15,U26C A45U C59G,0.07
16,U26C A45U C79A,0.26
17,U26C A45U G46A,0.13
18,U26C A45U G63U,0.41
19,U26C A47C C50A U69A,0.41
20,U26C A47G G55A A56G U69A,0.08
21,U26C A47G G55A U72C,0.44
22,U26C A47G U72C,0.59
23,U26C A47G U76C,0.49
24,U26C A47U A56G C79U,0.47

row,Variant,self-cleavage
1,U26C A47U U49C U72C U74A,0.09
2,U26C A47U U51C U60A,0.11
3,U26C A56G A65G U80C,0.08
4,U26C A56G C79U,0.87
5,U26C A56G U67C U72C,0.1
6,U26C A56G U72A,0.25
7,U26C A56U A77G U78C,0.21
8,U26C A57G G61A,0.48
9,U26C A57G U58C A65U U69C,0.07
10,U26C A57G U66C,0.16
11,U26C A64G U76C,0.21
12,U26C A64G U78A,0.56
13,U26C A65G C81A,0.09
14,U26C A65G U76C,0.14
15,U26C A77G U78C,0.38
16,U26C A77G U80G,0.5
17,U26C C27G A57G A64G,0.23
18,U26C C27G G36A A45G A75G U78C,0.02
19,U26C C29A A35U A56G A77G,0.04
20,U26C C29A U80C,0.46
21,U26C C29G A45G U74A,0.04
22,U26C C29U U31C U49C,0.1
23,U26C C29U U43C A56U U67C,0.13
24,U26C C29U U76A U80C,0.35

row,Variant,self-cleavage
1,U26C C32A A45G U72C,0.49
2,U26C C32A C39U U49C A64G U80C,0.2
3,U26C C32A G36A,0.13
4,U26C C32A U69C,0.06
5,U26C C32U U69A U72A,0.1
6,U26C C34G A35G U48A U76A,0.06
7,U26C C37G A47G U49C G63A,0.07
8,U26C C37U A57U G63U C71A,0.06
9,U26C C37U U41A U67G U72C,0.09
10,U26C C37U U60C,0.12
11,U26C C38A A45G A57G,0.13
12,U26C C38A A64U U69A U78C,0.04
13,U26C C38U U41A U80C,0.09
14,U26C C39G A47U U69G,0.05
15,U26C C39U G53C U78A,0.22
16,U26C C40A U41C,0.06
17,U26C C40G A64U U66A U69A U76A,0.08
18,U26C C40U A45U A47G A65G,0.26
19,U26C C44G C59A U69A,0.18
20,U26C C44U A56G U69G,0.19
21,U26C C44U G46A U49C,0.2
22,U26C G30A A56G U69C U80A,0.14
23,U26C G30A C40A A56U A64U U80C,0.08
24,U26C G30A U43C U74A,0.18

row,Variant,self-cleavage
1,U26C G30A U76C,0.1
2,U26C G30C U41C,0.19
3,U26C G30C U72G,0.2
4,U26C G33C A35U U69C U72A,0.07
5,U26C G33C A45U A56G,0.04
6,U26C G33C C40U,0.11
7,U26C G33C G55U U60C,0.1
8,U26C G33C U78C,0.05
9,U26C G33U A56U A77U,0.31
10,U26C G36A A45G U49C U51C A56G A75G,0.06
11,U26C G36A A45G U80C C81G,0.15
12,U26C G36A U41A,0.17
13,U26C G36A U60A,0.16
14,U26C G36C A56U U80A,0.35
15,U26C G46A U48C U60C,0.09
16,U26C G46U A64U,0.14
17,U26C G46U U51A A75G,0.13
18,U26C G52U A57U G63A A65G U67C,0.12
19,U26C G73A U80A,1.11
20,U26C U31A A45U U60C,0.15
21,U26C U31A U41C A56U U66A U74C U78C,0.06
22,U26C U31A U67A,0.09
23,U26C U31C A56U U80C,0.09
